No constants are given. Whether binding was seen depends on the method and setting. For part of these data: Binding seen in cells or lysates may run through a third protein. Some binding calls cover weakened binding; strength is not graded here. Values belong to the substance of their own block, whether it stands above or below them.
Assays:
GST-Kindlin-2 = GST-Kindlin-2 (UniProt Q96AC1); assay: pull-down; mixture of purified GST-MafA and GST-Kindlin-2 immunoprecipitated with the indicated antibodies, Western blot; both purified
Flag-Kindlin-2 = Flag-Kindlin-2 (UniProt Q96AC1); assay: co-IP; whole cell extracts from COS-7 cells overexpressing pCMV/Flag-Kindlin-2 and pCMV/HA-MafA; immunoprecipitated with anti-Kindlin-2 or anti-MafA antibody, Western blot
HA-MafA (mouse) = HA-MafA (mouse) (UniProt Q8CF90); assay: as above
Flag-Kindlin-2 aa 1-569 = Flag-Kindlin-2 aa 1-569 (UniProt Q96AC1); assay: co-IP; COS-7 cells transfected with MafA expression plasmids and Flag-Kindlin-2 deletion mutants, 48 h; whole cell extracts immunoprecipitated with M2 antibody, Western blot with M2 or MafA antibody
Flag-Kindlin-2 aa 1-239 = Flag-Kindlin-2 aa 1-239 (UniProt Q96AC1); assay: as above
[1] = target: Flag-Kindlin-2 aa 570-680 (UniProt Q96AC1); assay: as above

Amino acid sequences for entries named in this document (tags omitted). A change or cut given only in a name is not applied to a line headed by its entry. Residues count along the entry.
UniProt Q96AC1: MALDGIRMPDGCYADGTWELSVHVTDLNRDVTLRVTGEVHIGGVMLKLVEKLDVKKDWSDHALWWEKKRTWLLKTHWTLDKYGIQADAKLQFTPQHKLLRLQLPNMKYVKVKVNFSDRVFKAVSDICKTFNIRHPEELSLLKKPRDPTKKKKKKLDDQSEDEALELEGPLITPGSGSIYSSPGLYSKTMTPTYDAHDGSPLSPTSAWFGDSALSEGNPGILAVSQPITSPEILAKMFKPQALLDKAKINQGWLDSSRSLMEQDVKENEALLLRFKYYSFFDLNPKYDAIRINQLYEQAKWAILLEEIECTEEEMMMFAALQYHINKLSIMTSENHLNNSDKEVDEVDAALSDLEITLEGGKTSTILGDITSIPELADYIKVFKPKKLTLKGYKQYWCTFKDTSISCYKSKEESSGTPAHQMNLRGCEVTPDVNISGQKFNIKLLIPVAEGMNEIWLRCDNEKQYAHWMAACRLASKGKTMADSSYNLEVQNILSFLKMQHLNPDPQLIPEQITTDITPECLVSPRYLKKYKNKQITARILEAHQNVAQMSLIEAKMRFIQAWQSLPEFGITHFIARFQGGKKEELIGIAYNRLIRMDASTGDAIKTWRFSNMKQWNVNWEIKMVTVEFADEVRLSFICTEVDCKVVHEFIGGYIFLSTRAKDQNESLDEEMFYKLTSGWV
Flag-Kindlin-2 aa 1-569: residues 1-569 of Q96AC1
Flag-Kindlin-2 aa 1-239: residues 1-239 of Q96AC1
Flag-Kindlin-2 aa 570-680: residues 570-680 of Q96AC1
UniProt Q8CF90: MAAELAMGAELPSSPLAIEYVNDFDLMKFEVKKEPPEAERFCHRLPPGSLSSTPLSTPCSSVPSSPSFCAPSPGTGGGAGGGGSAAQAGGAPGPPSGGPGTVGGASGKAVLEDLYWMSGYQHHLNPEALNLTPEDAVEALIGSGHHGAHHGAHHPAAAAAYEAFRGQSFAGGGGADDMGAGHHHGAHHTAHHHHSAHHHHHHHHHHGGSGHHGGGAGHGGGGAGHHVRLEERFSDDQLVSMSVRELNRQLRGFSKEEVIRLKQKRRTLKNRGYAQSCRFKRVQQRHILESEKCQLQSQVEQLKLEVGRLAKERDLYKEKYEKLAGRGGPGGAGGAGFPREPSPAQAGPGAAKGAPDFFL

binding (GST-Kindlin-2): binds
Substance: glutathione S-transferase (GST)-MafA fusion protein (from UniProt Q8CF90 1-359)

binding (Flag-Kindlin-2): binds
Substance: HA-MafA (from UniProt Q8CF90 1-359)

binding (HA-MafA (mouse)): binds
Substance: Flag-Kindlin-2 (from UniProt Q96AC1 1-680)

binding (Flag-Kindlin-2 aa 1-569): no binding | binding (Flag-Kindlin-2 aa 1-239): no binding | binding [1]: binds
Substance: MafA (from MafA expression plasmids, COS-7) (from UniProt Q8CF90 1-359)

From PMC6981167
